Data as given in the supplement of paper PMC10115384.
Human monoclonal antibodies (heavy:light variable regions, translated from the printed DNA). IC50 against SARS-CoV-2 spike pseudoviruses, on VSV particles in 293T-ACE2 cells (24 h) or MLV particles in HeLa-ACE2 cells (72 h); lower = stronger; >1.0 µg/ml as printed. No active / inactive call per row; the paper counts an IC50 of 0.4 µg/ml or less on any variant as neutralizing. Only 98 of the paper's 459 antibodies have neutralization values; the two systems are not on one scale.

B1: ADI-67964 (protein)
chain 1: QVTLKESGPVLVKPTETLTLTCTVSGFSLSNVRMSVSWIRQPPGKALEWLAHILSNDEKFYSTSLKSRLTISKDTSKSQVVLTVTNVDPADTGTYYCARLYEGSGRDSNNDAFDFWGQGTMVTVSS
chain 2: DIQMTQSPSSLSTSVGDRVTITCRASQNISNYLNWYQQKPGKAPKLLIYAASSLQSGVPSRFSGTGSGTDFTLTISSLQPEDFGTYYCQQSYSSRTFGQGTKVEIK
B2: ADI-67998 (protein)
chain 1: QVQLVESGGGVVQPGRSLRLSCAASGFTFSDYAMHWVRQAPGKGLEWVAVISNDGSGKFYADSVKGQFTISRDNSQNTLFLQMNSLRADDTAVYYCAKDTRQDWEPILEYWGQGTLVTVSS
chain 2: DIQMTQSPSSLSASVGDRVTITCRASQSISRYLNWYQQKPGKAPKLLIYAASTLQSGVPSRFTGSGSGTDFTLTISSLQPEDFATYYCQQSYTTLTLTFGGGTKVEIK
B3: ADI-67124 (protein)
chain 1: QVQLQESGPGLVKPSQTLSLTCTVSGGSISSGGYYWTWIRQHPGKGLEWIGYIHYSGNTYYNPSLKSRVSISVDTSKNQFSLQLSSVTAADTAVYYCAREGDFAFFDYWGQGTLVTVSS
chain 2: EIVLTQSPATLSLSPGERATLSCRASQSVRNYLAWYQQKPGQAPRLLIYDASNRATGIPARFSGTGSGTDFTLTISSLEPEDFAVYYCQQRFNWPPLTFGGGTKVEIK
B4: ADI-67129 (protein)
chain 1: QVQLVQSGAEVKKPGASVKVSCKASGYTFTDYFFHWVRQTPGQGLEWMGWINPTSGGTKYAQKFQGWVTITRDTSITTAYLELTRLKCDDTAIYYCARDRPLYYRSDYGMDVWGQGTTVTVSS
chain 2: QSALTQPASVSGSPGQSITISCAGTSSDVGAYNYVSWYQQHPGKAPKLMIYDVSTRPSGVSNRFSGSKSGNTASLTISGLQAEDEASYYCSSYTINSTVLFGGGTKLTVL
B5: ADI-67135 (protein)
chain 1: EVQLVESGGGLVQPGRSLRLSCAAFGFTFEDYTMQWVRQAPGKGLEWVSGISWNSGSTGYAEFVKGRFTISRDNAKNSLYLQMNSLGGEDTAFYYCAKGGEYSSRWYLRESYFDYWGQGTLVTVSS
chain 2: DIVMTQTPLSLSVTPGQPASISCKSSHSLLHSDGKTRLYWYLLKPGQPPQLLIYEVSNRFSGVPDRFSGSGSGTDFTLKISRVEAEDVGVYYCMQSIQVPLTFGGGTKVEIK
B6: ADI-67230 (protein)
chain 1: QVQLQESGPGLVKPSGTLSLTCAVSGGSISSSNWWSWVRQPPGKGLEWIGEIYHSGSTNYNPSLKSRVTISLDRSKNQFSLKLISVTAADTAVYYCAREGPSLGVGFYYGMDVWGQGTTVTVSS
chain 2: EIVLTQSPGSLSLSPGERATLSCRASQSLTSTYLAWYQQKPGQAPRLLIYGASSRATGIPDRFSGSGSGTDFTLTITRLEPEDFAVYFCQQYGASRTFGQGTKVEIK
B7: ADI-67231 (protein)
chain 1: EVQLVESGGGLVQPGGSLRLSCTVSGFTFNSYWMSWVRQAPGKGLEWVANIRHDGSEKYYVDSVKGRFTISRDNAKNSLYLQMNSLRAEDSAVYYCARQSIYHDFRSGVGYSYYYTMDVWGQGTTVTVSS
chain 2: SSELTQDPAVSVALGQTVTITCQGDSLRIYFATWYQQKAGQAPVLVIYGKNNRPSGIPDRFSGSRSGDTASLTITGAQAEDEADYYCSSRDSSGNYFVFGTGTKVTVL
B8: ADI-67471 (protein)
chain 1: QITLKESGPMLVKPTQTLTLTCTFSGFSLSTSGVGVGWIRQPPGKALEWLALIYWDDNKRYSPSLRSRLTITKDTSKNQVVLTMINMDPVDTATYYCAHSPYLTRGYNTYDVGYFFDYWGQGTLVTVSS
chain 2: DIVMTQSPDSLAVSLGERATINCKSSQSVLYSSNNKNFLAWFQQKPGQPPELLIYWASTRESGVPDRFSGSGSGTDFTLTISSLQAEDVAVYYCQQYYSTPPIFGGGTKVEIK
B9: ADI-67485 (protein)
chain 1: QVQLVQSGAEVKKPGSSVKVSCKASGGTFINSAISWVRQAPGQGLEWMGGLVAILGTPNYAQKFQGRVTITADESRSTAYMELSSLRSEDTAVYYCATGVRYCDTTSCRASYFDFWGRGTLVTVSS
chain 2: EIVLTQSPGTLSLSPGERATLSCRTSQSVSSSHLAWYQQKPGQAPRLVIYGASSRATGIPDRFSGSGSGTDFTLTISRLEPEDLAVYYCQQYGSSPLTFGQGTKLEIK
B10: ADI-67657 (protein)
chain 1: EVQLLESGGGLVQPGGSLRLSCAASGFPFSTYAMSWVRQAPGKGLEWVSAIGGSGSDTYYADSVKGRFTISRDNSENTLFLQMNSLRAEDTAVYYCAKDRLRTSSLQPMPFFDYWGQGTLVTVSS
chain 2: DIVMTQSPDSLAVSLGERATINCKSSQSVLYSSNNKNYLAWYQQQPGQPPRLLIYWTSTRESGVPDRFSGGGSGTDFTLTISSLQAEDVAVYYCQQYYSAPYTFGQGTKVEIK
B11: ADI-67677 (protein)
chain 1: QVQLVESGGGVVQPGRSLRLSCAAYGFTFSNYGMHWVRQAPGKGLEWVAVISYDGSNNYSADSVKGRFTISRDNSKNMLHLQMNSLRAEDTAVYYCATDYGDYGHYQYYYYMDVWGKGTTVTVSS
chain 2: EIVLTQSPATLSLSPGERATLSCRASQSVGSYLAWYQQKPGQAPSLLIFDAFNRAAGIPARFSGSASGTDFTLTISSLEPEDFAVYYCQQRSTWPLTFGGGTKVEIK
B12: ADI-67731 (protein)
chain 1: EVQLVESGGGLVQPGGSLRLSCAASGFMFNIHNMNWVRQAPGKGLEWVSYISGSSSTMYYADSVKGRFTISRDNAKNSLYLQMNSLRAEDPAVYYCAGSNYYDGNGPDYWGQGTTVTVSS
chain 2: DIQMTQSPSSLSASVGDRVTITCRPSQGIRNDLGWYQQKPGKAPKRLIYAASSLQSGVPSRFSGSGSGTEFTLTISSLQPEDFATYYCLQYNTYPSLTFGGGTKVEIK
B13: ADI-67746 (protein)
chain 1: EVQLVESGGGLVQPGGSLRLSCVASGFTFSTYDMHWVRQTTGKGLEWVSTIGTAGDTYYLESVKGRFTISRENAENSLSLQMNSLRAGDTAVYYCTRGGATYDSGGSQVPFYFYYYMDVWGKGTTVTVSS
chain 2: DIQMTQSPSSLSASVGDRVTISCRASQSISSYLNWYQQKPGKAPKLLIYAASNLQSGVPSRFSGGGSGTDFTLTISSLQPEDFATYYCQQSYSMPELTFGGGTKVEIK
B14: ADI-67770 (protein)
chain 1: EVQLVESGGGLVQPGGSLRLSCAASGFTFSSYAMSWVRQAPGKGLEWVSTISASGGSTNYADSVKGRFTISRDISKNTLYLQMNSLRAEDTAVYYCAKASIVVLPAAIFWGKGTTVTVSS
chain 2: EIVMTQSPATLSVSPGERATLSCRASQSVSSNLAWYQQKPGQAPRLLIYGASTRATGIPARFSGSGSGTEFTLTISSLQSEDFAVYYCQQYNNWPRGTFGQGTKVEIK
B15: ADI-67826 (protein)
chain 1: QVQLVESGGGVVQPGRSLRLSCAASGFTFSDYGMHWVRQAPGKGLEWVTFLWYDGSNKDYADSVKGRFTISRDNSKNTLYLQMNSLRAEDTAVYYCARDPQRAYYYMDVWGKGTTVTVSS
chain 2: QTVVTQEPSFSVSPGGTVTLTCGLSSGPVSTSYYPSWYQQTPGQAPRTLIYSTITRSSGVPDRFSGSILGNKAALTITGAQADDESDYYCVLYMGGGIWVFGTGTKVTVL
B16: ADI-67890 (protein)
chain 1: QVQLQESGPGLVKPSETLSLTCTVSGGSITSHYWSWIRQPAGKGLEWIGRLYTSGTTNYNPSLKSRITMSVDTSKNQLSLKLSSVTAADTAVYYCARGGGSHRVYDPYYGMDVWGQGTTVTVSS
chain 2: SYELTQPPSVSVSPGQTARITCSGDALPKQYAYWFQQKPGQAPVLVMYKDIGRPSGIPERFSGSSSGTTVTLTISGVQAEDEADYYCQSEDSSGTYVVFGGGTKLTVL
B17: ADI-67941 (protein)
chain 1: QVQLVESGGGVVQPGRSLRLSCAVSGFTFSTYGMHWVRQAPGKGLEWVALIWYDGSEKKYSDSVKGRFTISRDNSKNTLYLHMNSLRAEDTAVYYCARVYCSRGLCHHEAYYYYAMGVWGQGTTVTVSS
chain 2: QSALTQPASVSGSPGQSITISCTGTSNDVGAYTYVSWYQQHPGKAPKLMIYDVSNRPSGVSNRFSGSKSGNTASLTISGLQAEDEADYYCSSYTSSGTLYVFGTGTKVTVL
B18: ADI-67947 (protein)
chain 1: QVTLKESGPALVKPTQTLTLTCTFSGYSVSTYGMRMSWIRQPPGKALEWLASISWDDDKFYNSSLRTRLTISKDTSKNQVILTMTNMDPVDTATYYCARIGCSTTSCWWYFDVWGRGTLVTVSS
chain 2: QSALTQPRSVSGSPGQSVTISCTGTSSDVGGYDYVSWYQHHPDKAPKIIIYDVTKRPSGVSDRFSGSKSGNTASLTISGLQAEDEADYYCCSYAGGYSVLFGGGTKLTVL

target: SARS-CoV-2 Delta spike pseudovirus; experiment: pseudovirus neutralization IC50; higher = weaker neutralization; settings: system: VSV particle, 293T-ACE2 cells
Method: (§1)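 Single-round reporter pseudovirus mixed with dilutions of yeast-made human IgG and put on ACE2-bearing cells; IC50 from the dose curve.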

| Binder | pseudovirus neutralization IC50 |
| --- | --- |
| B1 | > 1 µg/mL |
| B2 | > 1 µg/mL |
| B3 | > 1 µg/mL |
| B4 | > 1 µg/mL |
| B5 | > 1 µg/mL |
| B6 | > 1 µg/mL |
| B7 | > 1 µg/mL |
| B8 | > 1 µg/mL |
| B9 | 0.27 µg/mL |
| B10 | > 1 µg/mL |
| B11 | > 1 µg/mL |

target: SARS-CoV-2 index (Wuhan-Hu-1) spike pseudovirus; experiment: as above; settings: system: VSV particle, 293T-ACE2 cells
Method: as §1

| Binder | pseudovirus neutralization IC50 |
| --- | --- |
| B3 | > 1 µg/mL |
| B5 | 0.0025 µg/mL |
| B6 | > 1 µg/mL |
| B7 | > 1 µg/mL |
| B8 | 0.431 µg/mL |
| B9 | 0.0148 µg/mL |
| B10 | 0.0007 µg/mL |
| B11 | > 1 µg/mL |
| B12 | > 1 µg/mL |
| B13 | > 1 µg/mL |
| B14 | > 1 µg/mL |
| B15 | > 1 µg/mL |
| B16 | > 1 µg/mL |
| B17 | > 1 µg/mL |
| B18 | > 1 µg/mL |

target: SARS-CoV-2 Omicron BA.1 spike pseudovirus; experiment: as above; settings: system: MLV particle, HeLa-ACE2 cells
Method: as §1

| Binder | pseudovirus neutralization IC50 |
| --- | --- |
| B9 | 4.21 µg/mL |
| B10 | 2.14 µg/mL |

target: SARS-CoV-2 index (Wuhan-Hu-1) spike pseudovirus; experiment: as above; settings: system: MLV particle, HeLa-ACE2 cells
Method: as §1

| Binder | pseudovirus neutralization IC50 |
| --- | --- |
| B9 | 0.0222 µg/mL |
| B10 | 0.00269 µg/mL |
